Laboratory results taken from the supplement of paper PMC3334620.
In all, about 33,000 sequences were measured (“E-score (-0.5 to 0.5)”: median about -0.056, highest 2% from about 0.38 on). Some of the results follow.

What follows are sequences tested against Stb4 (UniProt P50104) (assay: PBM E-score (8-mer binding enrichment) (E-score (-0.5 to 0.5)); higher = stronger / more preferred TF binding; most listed sequences are background and not binding sites). Conditions: protein concentration: 200 nM; construct: GST-DNA-binding domain.
Summary of the method: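 PURExpress in vitro transcription/translation supplied GST-tagged yeast transcription factors, either full-length or DNA-binding domain. Applied at about 100-200 nM to universal all-10-mer Agilent arrays double-stranded by primer extension, the bound protein was detected with fluorescent anti-GST. E-scores, modified Wilcoxon-Mann-Whitney statistics, were given by the Universal PBM Analysis Suite to ungapped eight-base words pooled with their reverse complements after masliner normalisation.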

First: CACGTACG
Second: TGAGAGAA
The “PBM E-score” value of the first is higher: -0.0829 for the first, -0.309 for the second.

Compared with AGACGGTC, ATAGCGAA is higher in “PBM E-score” value: -0.103 for the first, -0.0663 for the second.

First: GTCACAGA
Second: CCCTCTAA
The “PBM E-score” value of the first is lower: -0.205 for the first, -0.182 for the second.

Going from CAACTCGC to CCGTAGAC, the “PBM E-score” value rises from -0.117 to 0.166.

First: ACCTTCCT
Second: AACCCCTC
The “PBM E-score” value of the first is lower: -0.342 for the first, -0.0278 for the second.

First: CAATAACG
Second: TCTGTGAA
The “PBM E-score” value of the first is lower: -0.115 for the first, -0.102 for the second.

Compared with CCCGATAA, GTATTGCA is lower in “PBM E-score” value: 0.248 for the first, -0.0744 for the second.

First: TATATTCA
Second: CCAAGTGG
The “PBM E-score” value of the first is higher: -0.105 for the first, -0.187 for the second.

Going from CGCTCGGA to TAGTACCA, the “PBM E-score” value falls from 0.463 to -0.0805.

First: CAGTTATA
Second: CGGCGCGC
The “PBM E-score” value of the first is lower: -0.00551 for the first, 0.182 for the second.

First: ATCCAAAC
Second: AGATTCAC
The “PBM E-score” value of the first is lower: -0.125 for the first, -0.0606 for the second.

First: AACCAGCC
Second: TATATGGA
The “PBM E-score” value of the first is higher: 0.103 for the first, -0.233 for the second.

Going from ACGTGTTC to TACGCTAA, the “PBM E-score” value falls from -0.0476 to -0.105.

Going from CAAAAAAA to CATCAGCG, the “PBM E-score” value falls from 0.165 to -0.0429.

First: AGTTCCAC
Second: AGCCGAGC
The “PBM E-score” value of the first is lower: -0.0927 for the first, 0.448 for the second.

First: CATGCGTC
Second: ATATCTCG
The “PBM E-score” value of the first is lower: -0.0859 for the first, 0.186 for the second.

Going from CGGTATGA to GAGCGTCA, the “PBM E-score” value falls from 0.182 to 0.026.

Compared with GAGCGAAC, TCAATACA is higher in “PBM E-score” value: -0.11 for the first, -0.0858 for the second.

Compared with GTGTGCTA, ATAACACC is higher in “PBM E-score” value: -0.0288 for the first, 0.184 for the second.

Compared with AATGAAAG, AAGAGTCA is lower in “PBM E-score” value: -0.0359 for the first, -0.097 for the second.

First: AGCGAGTG
Second: AGTCGACG
The “PBM E-score” value of the first is lower: -0.0337 for the first, 0.0306 for the second.

Going from AGAGCACC to ATTAACTC, the “PBM E-score” value rises from -0.228 to 0.0369.

First: TGGCGCAA
Second: GCCGTGAA
The “PBM E-score” value of the first is lower: -0.128 for the first, 0.0921 for the second.

Going from GGTGTCTA to AGGGTAGC, the “PBM E-score” value falls from -0.13 to -0.199.

First: GGGTGAAA
Second: AGATTAAG
The “PBM E-score” value of the first is higher: 0.169 for the first, -0.0284 for the second.

Compared with CGCGCGCA, ATCCTCGC is lower in “PBM E-score” value: 0.147 for the first, -0.0124 for the second.

Compared with GCACGTCC, TGTTCTAA is lower in “PBM E-score” value: -0.0131 for the first, -0.0848 for the second.

Going from AACGGGAC to CACCCCGA, the “PBM E-score” value rises from 0.158 to 0.284.

Going from CCTAGAGG to GTTGACCA, the “PBM E-score” value rises from -0.22 to -0.0923.

Going from AAGTTACT to ACTATACC, the “PBM E-score” value rises from -0.0331 to 0.0944.

First: CGTACGGA
Second: ACCCGGGC
The “PBM E-score” value of the first is lower: 0.285 for the first, 0.326 for the second.

Going from ATAAGCAG to AAATGGTT, the “PBM E-score” value falls from -0.0922 to -0.175.

Going from AATATAAC to CGCCCGAC, the “PBM E-score” value rises from 0.109 to 0.21.

Going from ATGGGCCA to ACACGAGA, the “PBM E-score” value falls from -0.0993 to -0.19.

Going from CAGTCCAA to GTAGGATA, the “PBM E-score” value rises from -0.158 to -0.0485.

Going from ACGAGAAG to CTAGTACC, the “PBM E-score” value rises from -0.264 to -0.0491.

First: TAAGCATA
Second: ATGAAGTC
The “PBM E-score” value of the first is lower: -0.128 for the first, -0.117 for the second.

Compared with AATCCACG, CTACTCGA is higher in “PBM E-score” value: -0.166 for the first, -0.121 for the second.

Compared with TCACCGAA, AATTAGCA is lower in “PBM E-score” value: 0.249 for the first, 0.118 for the second.

Going from ACGTGATA to AAAAAAGA, the “PBM E-score” value rises from -0.167 to -0.131.

Going from ACCGAAAG to AGACAGCA, the “PBM E-score” value falls from 0.231 to -0.0333.

Going from CATACTCG to TACTACAA, the “PBM E-score” value falls from 0.104 to -0.0719.

Going from AAGTGTTA to ACATAAAC, the “PBM E-score” value rises from -0.0763 to -0.0698.

Compared with AGCGGACA, AATAAACC is higher in “PBM E-score” value: 0.0418 for the first, 0.179 for the second.

First: ATTAACGC
Second: TCGCCAGA
The “PBM E-score” value of the first is higher: -0.0923 for the first, -0.24 for the second.

Going from CCCTTTGC to ATTTCGGC, the “PBM E-score” value rises from 0.00773 to 0.371.

Going from CAGCTGCC to AGTGTTTA, the “PBM E-score” value falls from 0.146 to -0.0553.

First: AGCCAAGA
Second: TCCGATCA
The “PBM E-score” value of the first is lower: -0.22 for the first, 0.358 for the second.

First: GTCAGTGA
Second: CACTACGG
The “PBM E-score” value of the first is lower: -0.269 for the first, 0.0783 for the second.

First: ACGACGGC
Second: ACATATAT
The “PBM E-score” value of the first is higher: -0.0199 for the first, -0.0249 for the second.

First: ACTTTGCC
Second: AGTGACGG
The “PBM E-score” value of the first is lower: 0.12 for the first, 0.137 for the second.

Going from ATTGGACG to GTATATAA, the “PBM E-score” value rises from -0.149 to -0.108.

First: AGAGAAAA
Second: CAAGCATG
The “PBM E-score” value of the first is higher: -0.034 for the first, -0.243 for the second.

Going from AATCGGGC to CAATTCAA, the “PBM E-score” value falls from 0.159 to -0.198.

Compared with ACCTTAAT, CTAACGGC is higher in “PBM E-score” value: -0.0966 for the first, 0.107 for the second.

First: CGACGGGC
Second: CATTCGCG
The “PBM E-score” value of the first is higher: 0.131 for the first, 0.0319 for the second.

Compared with ACAATCCA, AACTTAGC is higher in “PBM E-score” value: -0.205 for the first, -0.0883 for the second.

First: AGATAAAG
Second: ATGACTCG
The “PBM E-score” value of the first is lower: -0.0016 for the first, 0.145 for the second.

Compared with ACACGAGC, GGATTGCC is higher in “PBM E-score” value: -0.152 for the first, 0.0664 for the second.

First: ATTTAAAT
Second: CTGGGACC
The “PBM E-score” value of the first is higher: -0.101 for the first, -0.213 for the second.

Going from CCGCGATC to CTGCTCAA, the “PBM E-score” value falls from 0.142 to -0.238.

First: GGCAAGCA
Second: ACTGTGAC
The “PBM E-score” value of the first is higher: 0.0849 for the first, -0.0214 for the second.

First: AACCATAG
Second: CATTCCAC
The “PBM E-score” value of the first is higher: -0.0687 for the first, -0.113 for the second.

Going from GGCTTAGA to AACTCCAG, the “PBM E-score” value falls from -0.125 to -0.205.

Going from ACTTCACT to AGTTGGCA, the “PBM E-score” value falls from -0.136 to -0.178.

First: AATAAGGA
Second: ATTTAAAG
The “PBM E-score” value of the first is lower: -0.136 for the first, 0.121 for the second.

Going from GTGATAGA to GCAATGAA, the “PBM E-score” value rises from -0.147 to -0.0644.

First: GCGGAAGC
Second: ACGTAATC
The “PBM E-score” value of the first is higher: 0.336 for the first, -0.107 for the second.

Compared with CTTCCGTA, ACTATCGG is lower in “PBM E-score” value: 0.379 for the first, 0.236 for the second.

Compared with CAATGTCA, TCACGGCA is higher in “PBM E-score” value: -0.0158 for the first, 0.114 for the second.

Going from CCGAGGCG to CCACATCA, the “PBM E-score” value falls from 0.398 to -0.117.

Going from ACTCTGTG to ACCCCTGA, the “PBM E-score” value falls from -0.0844 to -0.0942.

Going from ATGGATTC to AACCCCGG, the “PBM E-score” value rises from -0.0389 to 0.267.

Compared with AATTGAGT, CGGTGCCC is higher in “PBM E-score” value: -0.0376 for the first, 0.167 for the second.

Compared with AAAAAAGT, CTGTAACA is lower in “PBM E-score” value: 0.0481 for the first, -0.221 for the second.

Compared with AAGGTCAT, CTTAGTTA is higher in “PBM E-score” value: -0.0172 for the first, 0.0341 for the second.

Compared with ACAGTCGG, GGATGACA is lower in “PBM E-score” value: 0.238 for the first, 0.0349 for the second.

Compared with ATCCAAGG, AGTCCTAA is lower in “PBM E-score” value: -0.0289 for the first, -0.274 for the second.

Going from TAACACGA to TGGACTAA, the “PBM E-score” value falls from -0.0541 to -0.242.

Going from ACACACGT to AGCAAAAA, the “PBM E-score” value rises from -0.115 to -0.0253.

First: CTACTTAA
Second: CATTCAAG
The “PBM E-score” value of the first is lower: -0.292 for the first, -0.00988 for the second.

First: AGTCCTAG
Second: CCTCCGTA
The “PBM E-score” value of the first is lower: -0.224 for the first, 0.145 for the second.

Compared with GAGTATGC, GACACGTA is lower in “PBM E-score” value: 0.0767 for the first, -0.0957 for the second.

Going from GGCTCACA to AGCGTCTC, the “PBM E-score” value rises from -0.0527 to -0.0427.

First: AAGGACCG
Second: CAGCGTAG
The “PBM E-score” value of the first is higher: 0.067 for the first, -0.134 for the second.

Compared with CATGTCGG, CAGTCGTC is lower in “PBM E-score” value: 0.296 for the first, -0.182 for the second.
